The other results are listed elsewhere or left out.
tested on: T1, Caupolican (Caup) homeodomain DNA-binding domain; test: PBM E-score (8-mer, recovered from the published 9-mer minima) (E-score (dimensionless, -0.5 to 0.5)); Drosophila protein; higher = stronger relative binding preference, active = 0.31 or more
T1 sequence: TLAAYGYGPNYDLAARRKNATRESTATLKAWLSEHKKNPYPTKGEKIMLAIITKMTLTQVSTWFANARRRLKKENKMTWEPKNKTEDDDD
How it was run: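 Caup's homeodomain DNA-binding domain (residues 214-303) was produced by in vitro transcription and translation and applied at 100 nM to custom-designed protein binding microarrays. Each value is an enrichment score giving relative binding preference for a short DNA word; higher means stronger. Published 9-mer scores were the minimum of their two constituent 8-mer scores, and the 8-mer values were recovered from those minima. A cutoff of 0.31 marks candidate binding sequences.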

Sequence | PBM E-score
AGGAAAAC | inactive: 0.0105
CTCACTGC | inactive: -0.0769
ATGGCAGC | inactive: -0.0408
GTGGACGA | inactive: -0.0222
AAACAGCG | inactive: 0.102
ACGTGATG | inactive: 0.111
ACCACGAA | inactive: 0.0497
CGTACCAA | inactive: 0.0356
GGCTATTA | inactive: -0.0237
CTAGTACA | active: 0.337
AGGTGAGA | inactive: -0.0156
AGCTTTCC | inactive: -0.213
AGAGCCGA | inactive: -0.0838
ATCCGAAC | inactive: 0.094
CCGTTTTA | inactive: 0.0132
CCAATTGG | inactive: -0.0667
ACATAGTG | inactive: 0.261
GCTGCTTA | inactive: -0.0334
GACTAACC | inactive: -0.0023
TAGATAAA | inactive: 0.131
CACTCAAC | inactive: 0.0378
GGTGGATA | inactive: -0.00667
ACGAAACG | inactive: 0.0226
AGGTCCTG | inactive: -0.0862

Sequence | PBM E-score
AGAGCTTC | inactive: -0.153
AAACCACA | inactive: 0.14
ACAAACCG | inactive: 0.0217
GACAAGTA | active: 0.355
CGCTCGAA | inactive: -0.0903
CCCTGTAG | inactive: 0.0794
ATCTGAAA | inactive: -0.0287
AGACGTCC | inactive: -0.0206
GATACTGC | inactive: 0.0885
CACCGGGG | inactive: -0.279
CTAATGGC | inactive: -0.112
AGCGTGCA | inactive: 0.0131
ATTCACTG | inactive: 0.059
AAAACTCT | inactive: -0.0466
CACTCGCA | inactive: -0.0749
ATAGGCCA | inactive: -0.0897
CCCACAAC | inactive: -0.112
CGGTGGGA | inactive: -0.258
AGATCTCG | inactive: -0.0451
CCAAAAAC | inactive: 0.0878
CACATTCA | inactive: 0.0769
CAGACCGC | inactive: -0.127
ACTATCAG | inactive: 0.083
AATCAGTC | inactive: 0.104

Sequence | PBM E-score
ATGCTAGC | inactive: 0.0581
AGTACTGA | inactive: 0.0906
ACCGGGCG | inactive: -0.275
CAATTGGA | inactive: 0.0086
ATGGTTTC | inactive: 0.126
GACAATCC | inactive: 0.0406
TAAGTCAA | inactive: 0.0724
CTTATAGA | inactive: -0.0369
ACCATTGA | inactive: 0.0779
AAGCAAGA | inactive: 0.085
ACCACGCC | inactive: -0.154
GCCTACGA | inactive: -0.0486
TCGACCGA | inactive: -0.161
GTATCGTA | inactive: 0.171
AACGCAAG | inactive: -0.0235
CAAGTCCA | inactive: -0.0273
CGAATAAG | inactive: -0.00374
CAACACGA | inactive: 0.267
CAACCCCC | inactive: -0.109
CGGCCCGA | inactive: -0.155
CACGTGTA | active: 0.329
CCACATGG | inactive: -0.0747
